# According to the supplement of paper PMC3334620:
# The full ranking holds about 33,000 sequences; the median of “E-score (-0.5 to 0.5)” is about -0.043, and the highest 2% start at about 0.37. The list shows a part of the results.
# Target: T1, Upc2 (UniProt Q12151)
# T1 sequence: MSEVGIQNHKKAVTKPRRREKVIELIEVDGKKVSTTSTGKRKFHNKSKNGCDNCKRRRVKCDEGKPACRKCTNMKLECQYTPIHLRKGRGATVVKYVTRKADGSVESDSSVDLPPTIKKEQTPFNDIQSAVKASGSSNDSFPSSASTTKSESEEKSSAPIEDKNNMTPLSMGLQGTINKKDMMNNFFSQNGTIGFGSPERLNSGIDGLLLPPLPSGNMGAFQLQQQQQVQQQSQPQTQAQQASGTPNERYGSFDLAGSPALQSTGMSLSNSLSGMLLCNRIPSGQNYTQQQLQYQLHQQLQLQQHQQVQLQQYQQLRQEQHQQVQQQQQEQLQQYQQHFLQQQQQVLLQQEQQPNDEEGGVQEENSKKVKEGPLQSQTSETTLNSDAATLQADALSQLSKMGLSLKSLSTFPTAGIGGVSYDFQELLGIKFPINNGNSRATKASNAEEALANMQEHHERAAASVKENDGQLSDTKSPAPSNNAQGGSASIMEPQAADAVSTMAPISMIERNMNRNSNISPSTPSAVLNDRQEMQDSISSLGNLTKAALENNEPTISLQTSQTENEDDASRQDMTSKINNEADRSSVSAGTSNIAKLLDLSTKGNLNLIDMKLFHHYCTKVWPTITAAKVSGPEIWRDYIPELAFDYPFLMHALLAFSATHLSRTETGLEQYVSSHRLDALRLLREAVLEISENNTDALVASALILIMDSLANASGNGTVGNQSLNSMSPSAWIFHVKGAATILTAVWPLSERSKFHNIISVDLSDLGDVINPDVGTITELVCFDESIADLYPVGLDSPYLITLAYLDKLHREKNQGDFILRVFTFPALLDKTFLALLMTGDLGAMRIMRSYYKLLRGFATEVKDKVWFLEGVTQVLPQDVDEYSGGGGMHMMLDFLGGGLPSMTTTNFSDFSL
# Test: PBM E-score (8-mer binding enrichment) (E-score (-0.5 to 0.5)); higher = stronger / more preferred TF binding; most listed sequences are background and not binding sites
# Settings: protein concentration: 200 nM; construct: GST-full length
# How it was run: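 Yeast transcription factors, full-length or as DNA-binding domains, were expressed with a GST tag using PURExpress in vitro transcription/translation. At about 100-200 nM they were applied to universal all-10-mer Agilent arrays, double-stranded by primer extension on fresh or once-stripped slides. Fluorescent anti-GST detected bound protein, and masliner normalised the scans. E-scores for ungapped eight-base words, pooled with reverse complements, came from the Universal PBM Analysis Suite.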
row,Sequence,PBM E-score
1,AGCCCACT,-0.0606
2,ACCCGATA,0.186
3,CACGTTTC,-0.0911
4,ATCACTGG,-0.0895
5,ATGCTCAA,-0.193
6,ATCTTGCG,-0.0954
7,ACGCAGTA,0.144
8,GGATGTCA,-0.0217
9,CTCTGCTA,-0.287
10,CCGTGAGA,-0.314
11,CATCATAG,-0.144
12,CCTACCAC,-0.181
13,ATAGCGGG,-0.104
14,GGACACAA,-0.071
15,CAGTCGCG,0.0786
16,ACTTAGTC,-0.111
17,TCTAGCAA,-0.0683
18,CGTCCTTC,-0.105
19,AGAAAGGC,-0.139
20,CGTATAGA,0.48
21,GCATCTAA,0.154
22,CACGGAAC,0.0588

row,Sequence,PBM E-score
1,ATTCCGAA,0.0108
2,CCCTATCG,-0.0955
3,ATGGGAAC,0.128
4,GGAGAGAC,-0.254
5,AGCTTGTA,0.0473
6,ACTTAGAC,-0.00246
7,GCCCTACA,-0.0608
8,ATAAAGAT,0.0673
9,ACTTAAAT,-0.136
10,ACTGTAAG,0.21
11,TATAGTGA,-0.0418
12,TCGTAGCA,0.39
13,GTGTTAAC,-0.0236
14,CGCCCACC,-0.216
15,ACGCTGTA,0.16
16,ACGTAGGA,0.0483
17,CTTTAGAA,-0.0609
18,CTGCCGCA,-0.171
19,CTATAATC,0.121
20,GCCCAGGA,-0.294
21,TAACTATA,0.0748
22,GCGGCAGC,-0.259

row,Sequence,PBM E-score
1,GACTAGCA,-0.169
2,AATCGAAT,0.0785
3,GCATTTAA,0.125
4,CCATCGCG,0.00905
5,GAAGTCCA,-0.273
6,AGAAGGCA,-0.179
7,CCGAGCAC,0.0986
8,AGCGCCGC,-0.12
9,CACCCGAA,0.0163
10,AATGCCGA,-0.0575
11,GTCGTCGA,-0.0294
12,GGCGAAAA,0.098
13,AGCAGAGA,-0.28
14,ACGAAATG,0.283
15,CGGCTTAG,-0.287
16,ACTCCCTA,-0.00677
17,CCTAACAC,0.0225
18,AGTACGCC,-0.0728
19,ACGGTCTC,0.204
20,ATTAGTCG,0.278
21,CACATCAG,-0.174
22,GGGTAGTA,-0.091

row,Sequence,PBM E-score
1,CCGGCTAA,-0.199
2,CTGGGACA,-0.0359
3,AACGCACT,0.141
4,TAGCGCAA,0.042
5,GCGTATTA,0.0994
6,GTAGCGCA,0.0969
7,AAACTTCT,0.116
8,GGCAAGCC,-0.209
9,AATTTGTG,0.02
10,AAGGACAA,-0.0102
11,AGATTTAT,0.0852
12,AACATAAA,0.0726
13,GGGGACGA,-0.193
14,AATTACAA,-0.198
15,TTAGGCAA,-0.18
16,CCATACGG,0.396
17,ACAACACG,0.0954
18,CCGAGTGA,0.102
19,GATACTCA,-0.093
20,GACTCGCC,-0.046
